Reference: the antibiotic and cytotoxicity screens of Wong et al. (2023)
This is one part of the list.

Tested on: HSkMC (human skeletal muscle cells)
Test: cytotoxicity call (relative viability < 0.9)
Conditions: 10 µM

| SMILES | cytotoxicity call |
| --- | --- |
| C[C@@H]1CCCCO[C@@H](CN(C)Cc2ccc(C(=O)O)cc2)[C@@H](C)CN([C@@H](C)CO)C(=O)c2cc(NC(=O)Cc3ccccc3)ccc2O1 | inactive |
| C[C@@H]1CN([C@H](C)CO)C(=O)c2cc(NS(C)(=O)=O)ccc2O[C@H]1CN(C)Cc1ccc(C(=O)O)cc1 | inactive |
| Cn1cnc(S(=O)(=O)N[C@@H]2CC[C@H](CC(=O)N3CCN(c4ccccc4)CC3)O[C@@H]2CO)c1 | inactive |
| C[C@H]1CCc2c(sc(/N=C/C=C/c3ccccc3)c2C#N)C1 | inactive |
| CC(C)(C)CC(C)(C)c1ccc(O)c(Cc2ccc(Cl)cc2Cl)c1 | active |
| C[C@H](CO)N1C[C@H](C)[C@@H](CN(C)C(=O)Nc2ccc(C(F)(F)F)cc2)OCCCC[C@H](C)Oc2ccc(NC(=O)Cc3ccccc3)cc2C1=O | inactive |
| CN(C)[C@@H](CN)c1cccn1C | inactive |
| CCN(CC)CCNC(=O)c1ccc(N)cc1.Cl | inactive |
| COc1ccc(-c2nc(N3CCOCC3)c3sc(CN(C)c4ncc(C(=O)NO)cn4)cc3n2)cn1 | active |
| O=C(O)c1ccc(O)cc1O | inactive |
| Cc1cc(C(=O)Nc2cccc3c2O[C@@H](CN(C)S(=O)(=O)c2cccs2)[C@@H](C)CN([C@H](C)CO)C3=O)n(C)n1 | inactive |
| C[C@@H]1CCCCO[C@@H](CN(C)S(=O)(=O)c2cccs2)[C@@H](C)CN([C@H](C)CO)C(=O)c2cc(NS(=O)(=O)c3ccc(Cl)cc3)ccc2O1 | inactive |
| C[C@@H]1CN([C@@H](C)CO)S(=O)(=O)c2ccc(-c3cccc(C#N)c3)cc2O[C@H]1CN(C)C(=O)c1cccnc1 | inactive |
| C[C@@H]1CCCCO[C@@H](CN(C)C(=O)Nc2ccc(F)cc2)[C@H](C)CN([C@@H](C)CO)C(=O)c2cc(NC(=O)NC3CCCCC3)ccc2O1 | inactive |
| CC(=O)N(O)CCCCCNC(=O)CCC(=O)N(O)CCCCCNC(=O)CCC(=O)N(O)CCCCCN | inactive |
| C[C@H]1CCCCO[C@H](CN(C)C(=O)Nc2ccc(C(F)(F)F)cc2)[C@@H](C)CN([C@@H](C)CO)C(=O)c2cc(NC(=O)Nc3ccc(C(F)(F)F)cc3)ccc2O1 | inactive |
| Cc1noc(C)c1S(=O)(=O)Nc1cccc2c1O[C@@H](CN(C)Cc1ccc(-c3ccccc3)cc1)[C@@H](C)CN([C@@H](C)CO)C2=O | inactive |
| C[C@H]1CN([C@@H](C)CO)C(=O)Cc2cc(NC(=O)c3ccncc3)ccc2O[C@@H]1CN(C)Cc1ccc(Oc2ccccc2)cc1 | inactive |
| COCCOC(=O)N1C(=O)[C@@]2(c3cc(C#CCNC(N)=O)ccc31)[C@H](C(=O)N1CCc3cc(OC)c(OC)cc3C1)[C@H]1C(=O)O[C@H](c3ccccc3)[C@H](c3ccccc3)N1[C@@H]2c1ccccc1OCCO | inactive |
| C[C@@H]1CN([C@H](C)CO)C(=O)c2cccc(NS(=O)(=O)c3cccs3)c2O[C@@H]1CN(C)S(=O)(=O)c1cn(C)cn1 | inactive |

| SMILES | cytotoxicity call |
| --- | --- |
| C[C@H]1CN([C@@H](C)CO)C(=O)c2cccc(NC(=O)C3CCCCC3)c2O[C@@H]1CN(C)C(=O)Nc1cccc2ccccc12 | inactive |
| Cc1noc(C)c1S(=O)(=O)N(C)C[C@@H]1OCCCC[C@@H](C)Oc2ccc(NS(=O)(=O)c3cn(C)cn3)cc2C(=O)N([C@H](C)CO)C[C@@H]1C | inactive |
| C[C@H](O)C#Cc1cnc2c(c1)C(=O)N([C@H](C)CO)C[C@@H](C)[C@@H](CN(C)C(=O)Nc1ccc(C(F)(F)F)cc1)O2 | inactive |
| CCCNC(=O)C[C@H]1CC[C@H]2[C@@H](COc3ccc(NC(=O)Nc4ccc(C#N)cc4)cc3C(=O)N2C)O1 | inactive |
| C[C@H]1CCCCO[C@H](CN(C)C(=O)C2CCCCC2)[C@@H](C)CN([C@@H](C)CO)C(=O)c2cc(NC(=O)c3ccncc3)ccc2O1 | inactive |
| CC(C)NC(=O)N(C)C[C@@H]1Oc2c(NC(=O)Nc3ccc4c(c3)OCO4)cccc2C(=O)N([C@@H](C)CO)C[C@H]1C | inactive |
| C[C@@H]1[C@@H](c2ccccc2)OC(=O)[C@@H]2[C@H]3C(=O)N([C@@H](C)CO)[C@@H]4C(=O)N(Cc5ccccc5)CC=C[C@]34O[C@@H]2/C=C/CCC(=O)N1C | inactive |
| COc1ccc(S(=O)(=O)N(C)C[C@H]2Oc3ccc(NC(=O)Nc4cccc5ccccc45)cc3C(=O)N([C@@H](C)CO)C[C@@H]2C)cc1 | inactive |
| Cc1noc(C)c1NC(=O)N[C@H]1CC[C@@H](CC(=O)NCCCN(C)C)O[C@H]1CO | inactive |
| Cc1noc(C)c1S(=O)(=O)N(C)C[C@@H]1Oc2ccc(NC(=O)CCCN(C)C)cc2C(=O)N([C@H](C)CO)C[C@@H]1C | inactive |
| Cn1cnc(S(=O)(=O)N2C[C@@H](O)COC[C@H]3O[C@H](CC(=O)NC4Cc5ccccc5C4)CC[C@@H]32)c1 | inactive |
| C[C@@H]1CCCCO[C@H](CN(C)C(=O)C2CCCCC2)[C@@H](C)CN([C@@H](C)CO)C(=O)c2cc(NC(=O)C3CCCCC3)ccc2O1 | inactive |
| C[C@@H]1O[C@@H](O[C@H]2[C@@H](Oc3cc(O)c4c(c3)O[C@H](c3ccc(O)cc3)CC4=O)O[C@H](CO)[C@@H](O)[C@@H]2O)[C@H](O)[C@H](O)[C@H]1O | inactive |
| NC[C@H]1O[C@H](O[C@H]2[C@H](O)[C@@H](O[C@H]3O[C@H](CO)[C@@H](O)[C@H](N)[C@H]3O)[C@H](N)C[C@@H]2N)[C@H](N)C[C@@H]1O | inactive |
| COc1ccc(S(=O)(=O)Nc2ccc3c(c2)C(=O)N([C@@H](C)CO)C[C@@H](C)[C@H](CN(C)S(C)(=O)=O)O3)cc1 | inactive |
| Cc1cc(C(=O)Nc2cccc3c2O[C@H](CN(C)Cc2ccc(Oc4ccccc4)cc2)[C@@H](C)CN([C@H](C)CO)C3=O)n(C)n1 | inactive |
| CC(C)NC(=O)Nc1ccc2c(c1)C(=O)N([C@H](C)CO)C[C@H](C)[C@@H](CN(C)C(=O)Nc1ccc(F)cc1)OCCCC[C@H](C)O2 | inactive |
| NC1CCN(C(=O)Nc2nncs2)CC1 | inactive |
| C[C@H]1CCCCO[C@H](CN(C)Cc2ccc(C(F)(F)F)cc2)[C@@H](C)CN([C@@H](C)CO)C(=O)c2cc(NC(=O)NC3CCCCC3)ccc2O1 | inactive |
| C[C@@H]1CN([C@H](C)CO)C(=O)c2cccc(NS(=O)(=O)c3cccs3)c2O[C@@H]1CN(C)Cc1ccc(Oc2ccccc2)cc1 | inactive |
